“And” between values parts separate entries of the source, which are not always exact repeats. Equal values may be shown once. Out of some 420,000 compounds screened, about 50,000 (12%) were called active. The inconclusive results got no clear call from the source; some entries with a clear call stand among them for comparison. Calls come from the whole dose curve; as a rule, active = well fitted inhibition curve with a large enough effect; inconclusive = small, poorly fitted or top-dose-only effect; inactive = flat fitted curve, though single readings scatter. A potency beside an inconclusive call is a rough fit, not a confirmed value.
Assay: qHTS for Inhibitors of human tyrosyl-DNA phosphodiesterase 1 (TDP1): qHTS in cells in presence of CPT; note: nearly all actives have a fitted effect of over 55% in size
Conditions: chicken DT40 Tdp1-/-;hTDP1 cells + 20 nM CPT, ATP luminescence, 48 h; activity change, negative = growth inhibition: at 46.2 µM (top of the series) unless noted
Method in brief: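 Cell growth measured by CellTiter-Glo luminescence after a minimum 48 h, 37 C compound exposure with 20 nM CPT in Tdp1-knockout DT40 cells stably expressing hTDP1, seeded 400/well; qHTS titration format.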
% is set by controls: 0 for no effect and ±100 for the full control effect; potency is the fitted concentration of half-maximal effect; tags give direction and shape of the fitted curve.

Q: For c1cc2c(cc1CCNC1CCCCCC1)OCO2, which “activity change, negative = growth inhibition” value is on record?
A: The value was inactive: -19.6%.

Q: For COc1cc2c(c(OC)c1OC)-c1ccc(O)c(=O)cc1[C@@H](N)CC2, which “activity change, negative = growth inhibition” value is on record?
A: Its value is inactive: -1.67%.

Q: With Cn1cnc([N+](=O)[O-])c1Sc1ccc([N+](=O)[O-])cc1 as the compound, how does the Potency read?
A: The Potency was active: 3.66 µM.

Q: With OCCN1CCN(CCCN2c3ccccc3Sc3ccc(C(F)(F)F)cc32)CC1 as the compound, how does the Potency read?
A: Its Potency is active: 6.68 µM and active: 16.4 µM.

Q: Which Potency does the source give for CCCCCN1C(=O)c2cc(OC)ccc2[C@@]2(C(=O)OCC)Cc3cc(Cl)ccc3[C@@H]12 here?
A: Its Potency is active: 3.26 µM.

Q: For O=c1c2ccccc2nc(/C=C\c2ccccc2[N+](=O)[O-])n1-c1ccccc1O, which Potency is on record?
A: The Potency was inconclusive: 16.4 µM [inhibitor, single point].

Q: Which Potency does the source give for Clc1ccc2c(c1)C(c1ccccc1Cl)=NCc1nnc(N3CCN(CCSc4ccccc4)CC3)n1-2 here?
A: The Potency was active: 25.9 µM.

Q: With O=C(N/N=C/c1c(O)n(C2CCCCC2)c(=S)[nH]c1=O)c1ccccc1 as the compound, how does the Potency read?
A: The Potency was inconclusive: 29.1 µM [inhibitor, single point].

Q: With Cc1ccc(Sc2ccc(C=C3C(=O)N(C)C(=O)N(C)C3=O)o2)cc1 as the compound, how does the Potency read?
A: The Potency was active: 18.4 µM.

Q: For C=C1[C@@H](C)[C@H]2[C@H](Cc3ccccc3)NC(=O)[C@]23OC(=O)/C=C/[C@H](O)CCC[C@@H](C)C/C=C/[C@H]3[C@@H]1O, which Potency is on record?
A: Its Potency is active: 609 nM and active: 1.84 µM.

Q: With O=C(NCc1ccccc1)C(=O)NCC1OCCN1S(=O)(=O)c1ccc([N+](=O)[O-])cc1 (stereo not given) as the compound, how does the Potency read?
A: Its Potency is inconclusive: 29.1 µM [inhibitor, single point].

Q: For CCOP(=O)(OCC)C(O)c1ccc(OC)c(OC)c1 (stereo not given), which “activity change, negative = growth inhibition” value is on record?
A: Its value is inactive: 0.477%.

Q: Which “activity change, negative = growth inhibition” value does the source give for CCOc1ccc(C(C)=O)cc1Cc1c(O)[nH]c(=S)[nH]c1=O here?
A: Its value is inactive: -2.28%.

Q: For CC(C)CCn1c(=O)c(C(=O)NCc2ccc3c(c2)OCO3)c(O)c2ccccc21, which Potency is on record?
A: Its Potency is inconclusive: 16.4 µM [inhibitor, partial curve, poor fit].

Q: Which Potency does the source give for O=C(NCC1=C(c2cccc3ccccc23)C[C@@H]2CC[C@H]1N2Cc1ccco1)c1cccs1 here?
A: The Potency was inconclusive: 29.1 µM [inhibitor, single point].

Q: For Nc1ccccc1, which “activity change, negative = growth inhibition” value is on record?
A: The value was inactive: -16.7%.

Q: Which Potency does the source give for CCOC(=O)[C@]12Cc3cc(OC)ccc3[C@H]1N(Cc1ccccc1)C(=O)c1ccccc12 here?
A: The Potency was inconclusive: 35.5 µM [inhibitor, single point] and inconclusive: 29.1 µM [inhibitor, single point].

Q: For Cc1cccc(NC(=O)Oc2ccc(Cl)c3cccnc23)c1, which Potency is on record?
A: Its Potency is active: 11.6 µM.

Q: With Cc1cc(OCC(=O)N[C@H](C(=O)O)c2ccccc2)c2c3c(c(=O)oc2c1)CCC3 as the compound, how does the “activity change, negative = growth inhibition” value read?
A: The value was inactive: -4.12%.

Q: With Cc1ccc2c(c1)c(=O)c1c3n2CCN(CC2CO2)C3CC1 (stereo not given) as the compound, how does the Potency read?
A: The Potency was active: 18.4 µM.

Q: For COC(=O)C1=C(c2ccc(F)cc2OCc2ccccc2)C[C@@H]2CC[C@H]1N2C(=O)NC(C)C, which Potency is on record?
A: The Potency was inconclusive: 23.1 µM [inhibitor, single point].

Q: Which Potency does the source give for c1ccc(C(O[C@H]2CCCN(CCc3ccc4c(c3)OCO4)C2)c2ccccc2)cc1 here?
A: The Potency was inconclusive: 29.9 µM [inhibitor, single point].

Q: With COc1ccc(CCNC(=O)c2ccc3c(c2)CCN3S(=O)(=O)c2ccc(C)cc2)cc1OC as the compound, how does the Potency read?
A: Its Potency is active: 20.6 µM.

Q: With O=C(c1ccc(Cl)cc1)C1CCCN(Cc2cccn2-c2cccnc2)C1 (stereo not given) as the compound, how does the Potency read?
A: The Potency was inconclusive: 18.4 µM [inhibitor, single point].

Q: With Cc1ccc(C)c(NC(=O)CSc2nnc([C@@H](N)Cc3c[nH]c4ccccc34)o2)c1 as the compound, how does the “activity change, negative = growth inhibition” value read?
A: Its value is inactive: -11.6%.

Q: Which Potency does the source give for Cc1ccc(Cl)cc1N1CCN(C(=O)c2cn(C)c(=O)c3c2c2ccccc2n3C)CC1 here?
A: The Potency was inconclusive: 29.1 µM [inhibitor, single point].

Q: For Cc1ccc(-c2nc(CN3C(=O)CN=C(c4ccccc4Cl)c4cc(Cl)ccc43)c(C)o2)cc1, which Potency is on record?
A: Its Potency is active: 16.4 µM.

Q: Which Potency does the source give for CC(C)c1ccc(C(=O)N2CCCC(c3cc(C(=O)Nc4ccccc4Cl)no3)C2)cc1 (stereo not given) here?
A: Its Potency is active: 14.6 µM.

Q: For O=C(CCCc1ccc(N(CCCl)CCCl)cc1)NCc1ccccc1, which Potency is on record?
A: Its Potency is active: 0.731 µM.

Q: Which “activity change, negative = growth inhibition” value does the source give for O=P(C(Cl)Cl)(N1CCCCC1)N1CCCCC1 here?
A: Its value is inactive: -2.96%.

Q: For Nc1cccc2c1Cc1cc([N+](=O)[O-])ccc1-2, which “activity change, negative = growth inhibition” value is on record?
A: The value was inactive: 5.12%.

Q: With ClCCN(CCCl)c1ccc(/C=C/c2ccnc3ccccc23)cc1 as the compound, how does the Potency read?
A: Its Potency is active: 3.98 µM.

Q: Which Potency does the source give for CCOP(=O)(OCC)c1nc(-c2ccc(Br)cc2)oc1N1CCCCC1 here?
A: The Potency was active: 10.3 µM.

Q: With COc1ccc(C(=O)C2CCCN(C3CSCCSC3)C2)c(OC)c1 (stereo not given) as the compound, how does the Potency read?
A: Its Potency is inconclusive: 29.1 µM [inhibitor, partial curve, poor fit].

Q: Which Potency does the source give for CN1CCc2nc(SCc3cccc(Br)c3)c(C#N)cc2C1 here?
A: The Potency was inconclusive: 16.4 µM [inhibitor, single point].

Q: Which Potency does the source give for COc1cccc(C(c2nnnn2C2CCCC2)N2CCC3(CC2)C(=O)NCN3c2ccccc2)c1OC (stereo not given) here?
A: Its Potency is inconclusive: 29.1 µM [inhibitor, single point].

Q: With CN(C)c1nc(OCCNC(=O)COc2ccc(Cl)cc2Cl)nc(N2CCCCC2)n1 as the compound, how does the Potency read?
A: Its Potency is active: 9.2 µM.

Q: With COc1ccc(C=C2C(=O)NC(=S)NC2=O)cc1 as the compound, how does the Potency read?
A: Its Potency is inconclusive: 16.4 µM [inhibitor, single point].

Q: For CCOC(=O)c1c(NC(NC(=O)CF)C(Cl)(Cl)Cl)sc2c1CCCC2 (stereo not given), which Potency is on record?
A: The Potency was active: 13 µM.

Q: With Cc1ccc2cc(CNCCc3ccccc3C)c(=O)[nH]c2c1 as the compound, how does the Potency read?
A: The Potency was inconclusive: 29.1 µM [inhibitor, single point].

Q: Which “activity change, negative = growth inhibition” value does the source give for c1cncc([C@H]2CCCCN2)c1 here?
A: The value was inactive: 2.15%.

Q: For C=CCn1c(O)c(/C=C2/C=CC=N2)c(=O)[nH]c1=O, which Potency is on record?
A: Its Potency is inconclusive: 23.1 µM [inhibitor, single point].

Q: Which “activity change, negative = growth inhibition” value does the source give for CC[N+]1(CCOC(=O)C(O)(c2ccccc2)c2ccccc2)CCCCC1 here?
A: Its value is inactive: 3.37%.

Q: With Cc1cc(N2CCOCC2)ccc1/C=C1\C(=O)NC(=O)N(c2ccccc2)C1=O as the compound, how does the “activity change, negative = growth inhibition” value read?
A: Its value is inactive: -30.8%.

Q: With O=C(Nc1ccc2c(c1)OCCO2)c1cccn(Cc2ccccc2)c1=O as the compound, how does the Potency read?
A: The Potency was inconclusive: 9.2 µM [inhibitor, partial curve].

Q: Which “activity change, negative = growth inhibition” value does the source give for O=C(Cn1cnc2sc3c(c2c1=O)CCCC3)NCCCC(=O)N1CCC2(CC1)OCCO2 here?
A: Its value is inactive: -18.1%.

Q: For CCc1ccc(CN2CCN(Cc3ccc(SC)cc3)CC2)cc1, which Potency is on record?
A: The Potency was inconclusive: 29.1 µM [inhibitor, single point].

Q: With c1ccc(CN2CCNCC2)nc1 as the compound, how does the “activity change, negative = growth inhibition” value read?
A: Its value is inactive: -6.68%.

Q: With Cc1cccc(C)c1NC(=O)CN(C)CC(=O)Nc1ccc(C#N)c(Cl)c1 as the compound, how does the Potency read?
A: The Potency was active: 18.4 µM.

Q: With Cc1cc(C)cc(N2C(=O)NC(=O)/C(=C\C=C\c3ccco3)C2=O)c1 as the compound, how does the Potency read?
A: Its Potency is active: 5.17 µM.

Q: Which Potency does the source give for CCOC(=O)C1=C(CN2CCN(c3ccc(C)cc3C)CC2)NC(=O)NC1c1ccc(OC)cc1 (stereo not given) here?
A: The Potency was inconclusive: 16.4 µM [inhibitor, single point].

Q: Which Potency does the source give for Cc1ccc(C(=O)Nc2nc3ccccc3n2CCN2CCCC2)cc1 here?
A: The Potency was active: 14.6 µM.

Q: With CN1C(=O)/C(=C\c2ccc(Br)s2)C(=O)NC1=S as the compound, how does the Potency read?
A: Its Potency is inconclusive: 29.1 µM [inhibitor, single point].

Q: For CCCCn1c(O)c(C(C)=NCCc2c[nH]c3ccccc23)c(=O)[nH]c1=O, which Potency is on record?
A: The Potency was inconclusive: 25.9 µM [inhibitor, single point].

Q: For CCC(=NCc1ccco1)c1c(O)n(Cc2ccccc2)c(=O)[nH]c1=O, which Potency is on record?
A: Its Potency is inconclusive: 8.2 µM [inhibitor, partial curve].

Q: For CN1CC(C(=O)c2ccc(F)cc2)C(c2ccc(F)cc2)C1 (stereo not given), which Potency is on record?
A: The Potency was inconclusive: 23.1 µM [inhibitor, partial curve].

Q: Which Potency does the source give for COc1ccc(-n2nnnc2C(CCSC)N2CCC3(CC2)C(=O)NCN3c2ccccc2)cc1 (stereo not given) here?
A: The Potency was inconclusive: 29.1 µM [inhibitor, single point].

Q: With COC(=O)C1=C(c2ccc(F)cc2OCc2ccccc2)C[C@@H]2CC[C@H]1N2C(=O)NCc1ccccc1 as the compound, how does the Potency read?
A: Its Potency is inconclusive: 16.4 µM [inhibitor, single point].

Q: With CC1(CCO)C(=O)NC(=S)NC1=O as the compound, how does the “activity change, negative = growth inhibition” value read?
A: The value was inactive: 2.11%.

Q: With CC(C)c1c(C(=O)NC(c2cccnc2)C(F)(F)F)cnn1-c1nccc(-c2cccs2)n1 (stereo not given) as the compound, how does the Potency read?
A: The Potency was inconclusive: 6.51 µM [inhibitor, single point].

Q: With COc1ccc(Nc2nc(N)nc(CSc3nc4ccccc4s3)n2)cc1 as the compound, how does the Potency read?
A: The Potency was active: 14.6 µM.

Q: For CCN1C(=O)c2ccccc2Sc2ccc(NC(=O)Nc3ccc(Br)c(C)c3)cc21, which Potency is on record?
A: The Potency was inconclusive: 29.1 µM [inhibitor, single point].

Q: For COc1ccccc1N1C(=O)NC(=O)/C(=C/c2ccc3c4c(cccc24)CC3)C1=O, which Potency is on record?
A: The Potency was inconclusive: 25.9 µM [inhibitor, single point].

Q: With CCc1ccc([C@H]2[C@@H]3C(=O)C[C@@H]4C(=O)N(Cc5ccccc5)C(=O)[C@@H]4[C@@H]3CN2S(=O)(=O)c2ccc(C)cc2)cc1 as the compound, how does the Potency read?
A: Its Potency is inconclusive: 29.1 µM [inhibitor, single point].

Q: For O=C(Cc1cc(=O)oc2cc(O)ccc12)NN=Cc1ccc(N(CCCl)CCCl)cc1, which activity change, negative = growth inhibition is on record?
A: Its activity change, negative = growth inhibition is inconclusive: -34.2% [inhibitor].

Q: For C[C@H]1COC(=O)[C@@H](Cc2ccc(F)cc2)CC/C=C/C[C@@H](CC(=O)N(CCO)Cc2ccccc2)C(=O)N1, which Potency is on record?
A: The Potency was active: 13 µM.

Q: For CCOP(=O)(OCC)C(NC(=O)c1ccccc1C)C(Cl)(Cl)Cl (stereo not given), which “activity change, negative = growth inhibition” value is on record?
A: Its value is inactive: -17.2%.

Q: For O=C1C(c2ccccc2)=C(N2CC2)c2ccccc21, which Potency is on record?
A: Its Potency is inconclusive: 23.1 µM [inhibitor, single point].

Q: With COc1ccc(NC(=O)Nc2ccc3c(c2)C(=O)N([C@H](C)CO)C[C@H](C)[C@@H](CN(C)S(=O)(=O)c2ccc(F)cc2)O3)cc1 as the compound, how does the Potency read?
A: The Potency was inconclusive: 29.1 µM [inhibitor, single point].

Q: With CC1CN1P1(=O)OCC(C)([N+](=O)[O-])CO1 (stereo not given) as the compound, how does the Potency read?
A: The Potency was inconclusive: 29.1 µM [inhibitor, single point].
